# PubChem BioAssay AID1347073 (National Center for Advancing Translational Sciences (NCATS), 2019)
# Hit rate of the full screen: of about 45,000 compounds, about 200 (0.44%) were called active. Inconclusive results (about 7%) are left out. Calls come from the whole dose curve; as a rule, active = well fitted activation curve with a large enough effect; inconclusive = small, poorly fitted or top-dose-only effect; inactive = no such curve, though single readings can be large or run the other way. The list shows a part of the results.
# Assay: qHTS of TDP-43 Inhibitors: NCGC Sytravon Library Screen; note: 0% is about no effect; nearly all actives have a fitted effect of over 55% in size
# Conditions: yeast TDP-43 toxicity rescue, BacTiter-Glo growth, 24 h; series mostly up to 46.1 µM; growth rescue (activation): at the top concentration
# Method in brief: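 TDP-43-expressing yeast, pregrown in raffinose, seeded at OD600 0.02 in galactose medium with compound for 24 hr at 30 deg C. Growth read by BacTiter-Glo luminescence, so rescue of toxicity appears as activation.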
row,SMILES,growth rescue (activation)
1,O=C(COc1ccc(Cl)cc1)NC1CCSC1=O (centres undefined),inactive: 25.9%
2,COc1ccc(/C=C/C(=O)NCCN=C2NS(=O)(=O)c3ccccc32)cc1,inactive: -2.65%
3,COCCN(C(=O)CN1CCN(S(=O)(=O)c2ccc(F)cc2)CC1)c1c(N)n(Cc2ccccc2)c(=O)[nH]c1=O,inactive: -0.874%
4,CCC(C)C(=O)Nc1nnc(SCC(=O)NC2CCCCC2)s1 (centres undefined),inactive: -9.35%
5,CC1Cn2c(nc(=O)c3c2NCN(CCc2ccccc2)C3)S1 (centres undefined),inactive: -0.423%
6,CCOc1ccc(OCC(=O)Nc2cccc(S(=O)(=O)NC3=NCCC3)c2)cc1,inactive: 2.41%
7,COc1ccccc1/C=C/C(=O)OCC(=O)NC1CCCCCC1,inactive: 14.2%
8,CCOc1ccc(-c2nc(C#N)c(NCc3ccco3)o2)cc1,inactive: -1.31%
9,CCOc1ccc(S(=O)(=O)N2CCCC(C(=O)N3CCOCC3)C2)cc1Cl (centres undefined),inactive: 4.72%
10,CCCOc1ccc(N/C=C/C(=O)c2ccc(OC)c(OC)c2)cc1,inactive: 16.4%
11,O=C1CC(c2ccccc2F)c2c(c3ccccc3[nH]c2=O)O1 (centres undefined),inactive: -13.1%
12,CCOC(=O)CCNC(=O)N1CCCC(CNS(=O)(=O)c2cccs2)C1 (centres undefined),inactive: -12.8%
13,Cc1cc[n+](-c2[nH]c(=O)sc2/C=N/NC(=O)c2ccccc2[O-])cc1C,inactive: 17.9%
14,N#CCCN(C(=O)COc1ccc(Br)cc1F)c1ccc(F)cc1,inactive: 14.5%
15,O=C(N[C@H](Cc1cc(=O)[nH]c2ccccc12)C(=O)O)c1ccc(Cl)cc1,inactive: -40.2%
16,O=C(c1cc2cc(F)ccc2[nH]1)N1CCC(Cc2ccccc2)CC1,inactive: 15.4%
17,Cc1cc(C)c2nc(SCC(=O)NNC(=O)c3ccco3)c(C)cc2c1,inactive: 9.65%
18,O=C(C1=C(O)C(=O)N(Cc2ccco2)C1c1cccnc1)c1cc2ccccc2o1 (centres undefined),inactive: -26.4%
19,CCOC(=O)c1c(NC(=O)CN2C(=O)CN(C)C2=O)sc(C)c1C,inactive: -5.25%
20,Cc1c(C(=O)NC(C)c2ccccn2)oc2c(Cl)cccc12 (centres undefined),inactive: 11.8%
21,CC(=O)Nc1ccc(/C=N/OCC(=O)Nc2ccc(C)cc2)cc1,inactive: -15.8%
22,O=C(COC(=O)c1cccnc1Cl)Nc1ccc2c(c1)OCCO2,inactive: 17.6%
23,Cc1c(O)ccc2cc(S(=O)(=O)c3ccccc3)c(=O)oc12,inactive: -25.9%
24,COc1cc(C(=O)OCC(=O)N2CC(C)OC(C)C2)cc(OC)c1OC (centres undefined),inactive: -2.84%
25,O=C(OCc1nc2scc(-c3ccccc3)c2c(=O)[nH]1)c1cccc([N+](=O)[O-])c1,inactive: 25.4%
26,Cc1cc[n+](CC(=O)Nc2nc3ccccc3s2)cc1,inactive: 12.6%
27,Cc1cc(NC(=O)Cn2nc(-c3cccs3)ccc2=O)cc(C)c1Br,inactive: -6.98%

row,SMILES,growth rescue (activation)
1,COc1ccc(CNC(=O)CN2C(=O)NC(C)(c3ccc(Cl)cc3)C2=O)cc1 (centres undefined),inactive: 1%
2,CCOC(=O)C1(CC2CCCCO2)CCN(Cc2nccn2-c2ccc(OC)cc2)CC1 (centres undefined),inactive: -0.177%
3,COc1cc(C(=O)COC(=O)c2ccco2)cc(OC)c1OC,inactive: -3.41%
4,Cc1ccccc1C(=O)N(Cc1ccc(N(C)C)cc1)Cc1ccco1,inactive: 13.5%
5,NC(Cc1ccccc1)c1csc(NC(=O)Nc2ccccc2Oc2ccccc2)n1 (centres undefined),inactive: 14%
6,Cc1cc(N2C(=O)C=CC2=O)c([N+](=O)[O-])cc1C,inactive: -96.6%
7,CCOc1ccccc1N(C(=O)c1ccco1)C(C(=O)NC1CCCC1)c1cccnc1 (centres undefined),inactive: 3.7%
8,CCNC(=O)C1(C)CCCN1C(=O)c1ccc(N(C)C)cc1 (centres undefined),inactive: -6.32%
9,Cc1ccc(NNC2CC(=O)N(c3cccc(Cl)c3)C2=O)cc1 (centres undefined),inactive: 25%
10,COCC(=O)Oc1c(S(=O)(=O)c2ccccc2)c(C)nn1C(C)(C)C,inactive: -16.1%
11,CCC12CN3CC(CC)(CN(C1)C31C(=O)N(C)c3ccc(C)cc31)C2=O (centres undefined),inactive: -3.48%
12,Cc1cccc(/C(N)=N/OC(=O)COc2ccc(Cl)c(C)c2)c1,inactive: 13.5%
13,CC1CC2c3cccc(C(=O)O)c3C(=O)N2c2ccc(Cl)cc21 (centres undefined),inactive: 13.6%
14,Cc1cc(C)c2nc(-c3ccccn3)cc(C(=O)Nc3ccc(S(=O)(=O)Nc4onc(C)c4C)cc3)c2c1,inactive: 6.99%
15,CC(C)=CC(=O)OCC(=O)Nc1ccc(F)cc1Cl,inactive: -2.86%
16,CCOC(=O)Nc1ccc(C)cc1NC(=O)OCC,inactive: 23.7%
17,Clc1ccc(NCc2nnc3n2CCCCC3)cc1,inactive: 19.6%
18,Cc1cccc(NC(=S)N(c2ccccc2)C(C)C)c1C,inactive: 14.5%
19,CC(C)(C)Cc1nnc(NC(=O)Cc2ccc([N+](=O)[O-])cc2)s1,inactive: 5.22%
20,C/C(=N\NC(N)=O)c1ccc(-n2ccnc2)cc1,inactive: -6.59%
21,COc1ccccc1-n1c(CNC(=O)c2cccc([N+](=O)[O-])c2C)n[nH]c1=S,inactive: 5.23%
22,COc1cccc2cc(C(=O)NCc3ccc(C)cc3)c(=O)oc12,inactive: 0.24%
23,COc1ccc(-n2c(SC3CCOC3=O)nc3ccccc3c2=O)cc1Cl (centres undefined),inactive: 19.6%
24,O=C(c1ccccc1)N(NC(=O)C(O)(c1ccccc1)c1ccccc1)c1cccc(F)c1,inactive: 24.4%
25,Nc1ccc(N2CCCCC2)c(Cl)c1,inactive: 7.02%
26,CC(C)Cn1c(N2CCN(CC(=O)Nc3ccc(Cl)cc3)CC2)nc2ccccc21,inactive: 9.69%
27,Cc1ccc2c(c1)N(CC(=O)N1CCCCC1)C(=O)CO2,inactive: 6.7%
